# Experimental data: PubChem BioAssay AID504832 (National Center for Advancing Translational Sciences (NCATS), 2011)
# Out of some 310,000 compounds screened, about 18,000 (5.8%) were called active. Inconclusive results, whose numbers are uncertain, are shown with a selection of clear calls. The call rests on the fitted dose curve; in most records, active means well fitted inhibition curve with a large enough effect; inconclusive means small, poorly fitted or top-dose-only effect, or another doubt; inactive means no such curve, though single readings can be large or run the other way. No potency is given beside an inconclusive call; the fits are too rough.
# Assay: Primary qHTS for delayed death inhibitors of the malarial parasite plastid, 48 hour incubation
# Conditions: P. falciparum luciferase growth in erythrocytes; series mostly up to 28.7 µM; activity change, negative = inhibition: at the top concentration
# Summary of the method: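 Cell-based growth assay: transgenic P. falciparum expressing firefly luciferase, cultured in red cells within RPMI 1640 containing 0.5% w/v Albumax, 24 mM bicarbonate and gentamycin. A drop in luciferase activity indicates inhibition.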
# On the % scale 0 is the no-effect control and ±100 the full control effect; potency means the concentration at half of the fitted maximal effect; tags describe the fitted curve by direction and shape.
SMILES,"activity change, negative = inhibition",Potency
CN(CC(=O)NNC(=O)CNC(=O)c1ccccc1F)S(=O)(=O)c1ccc(Cl)cc1,inactive: -25.2%,–
CC(C)N1CCN(c2ccc(S(=O)(=O)N3CCOCC3)cn2)CC1,inactive: 0.742%,–
CC1CC(C)CN(C(=O)c2ccc(Br)c(S(=O)(=O)N3CCOCC3)c2)C1 (stereo not drawn),–,"inconclusive [inhibitor, partial curve]"
Cc1cc(N)c2ccccc2n1,inactive: -4.76%,–
CCN1CCc2c(sc(NC(=O)c3cc4ccccc4cc3OC)c2C(N)=O)C1,–,active: 9.28 µM
O=C(/C=C/c1ccco1)Oc1cccc2cccnc12,–,active: 5.22 µM
CC1CCC(NC(=O)CN2CCN(S(=O)(=O)c3cccs3)CC2)CC1 (stereo not drawn),–,"inconclusive [inhibitor, single point]"
CC1=C(SCCC#N)S/C(=C2\SC(C)=C(SCCC#N)S2)S1,inactive: -5.71%,–
COc1cc(OC)cc(C(=O)Nc2ccc(-c3nc4ccccc4o3)cc2)c1,–,"inconclusive [inhibitor, partial curve]"
CCOC(=O)c1cnc(-n2nc(C)cc2C)nc1NCCO,–,"inconclusive [inhibitor, single point]"
CCc1ccccc1N(CC(=O)Nc1cccnc1)S(=O)(=O)c1ccccc1,–,"inconclusive [inhibitor, single point]"
CCCCCCCCCCCCCCCC(=O)OC(CC(=O)O)C[N+](C)(C)C (stereo not drawn),inactive: 0.975%,–
CC1CC(C)CN(c2oc(Cc3ccccc3)nc2C#N)C1 (stereo not drawn),–,"inconclusive [inhibitor, single point]"
C[N+]1([O-])[C@@H]2Cc3cc4c(cc3[C@@H]1Cc1cc3c(cc12)OCO3)OCO4 (stereo partly drawn),inactive: 54.1%,–
CCCc1nnc(SCC(=O)N2CCCC(C)C2)n1CCOC (stereo not drawn),inactive: -0.956%,–
CSC(=NC#N)N1CCN(c2ccccc2)CC1,inactive: 45.3%,–
O=C(NCCc1ccccc1)c1cccc([N+](=O)[O-])c1,inactive: 110%,–
CCN(CC)C(=O)COc1ccc(C=O)cc1OC,inactive: 13.1%,–
CCn1c(SCC(=O)c2c(N)n(C3CC3)c(=O)[nH]c2=O)nnc1-c1ccoc1C,–,"inconclusive [inhibitor, single point]"
NS(=O)(=O)c1ccc(CNC(=O)c2ccncc2)cc1,inactive: 17.4%,–
COc1ccc(CN(C(=O)CSc2nnc(-c3ccccc3C)o2)c2ccc(F)cc2)cc1,–,"inconclusive [inhibitor, single point]"
CN(C)c1ccc([P+](=O)c2ccc(N(C)C)cc2)cc1,inactive: 16.5%,–
Cc1ccc(N(C)C(=O)n2cnc3ccccc32)cc1,–,active: 3.7 µM
COc1cc(NC(=O)c2cccs2)c(OC)cc1NC(=O)CCC(=O)Nc1cccc2ncccc12,–,"inconclusive [inhibitor, single point]"
Cc1c(N2C(=O)c3cccc4cccc(c34)C2=O)cnn1C,inactive: 17.3%,–

SMILES,"activity change, negative = inhibition",Potency
CCO[C@H]1OC(C(N)=O)=C[C@@H](c2coc3ccccc3c2=O)[C@@H]1CCCO,–,"inconclusive [inhibitor, single point]"
CCOC(=O)c1cc(-c2ccccc2)sc1NC(=O)C(C)Sc1nnc(N)s1 (stereo not drawn),–,"inconclusive [inhibitor, single point]"
COc1cccc(NC(=O)CN(C)C(=O)C2=COCCO2)c1,–,"inconclusive [inhibitor, single point]"
CCCCCCNC(=O)CNC(=S)N(Cc1cccs1)C1CCCCC1,–,"inconclusive [inhibitor, partial curve, poor fit]"
c1ccc(CCc2nc(-c3ccccc3)no2)cc1,inactive: 118%,–
CSC(=Nc1ccccc1)c1c(O)n(C)c(=O)n(C)c1=O,inactive: -18.5%,–
Cc1ccc(S(=O)(=O)C2(S(=O)(=O)c3ccc(C)cc3)CCCC2)cc1,–,"inconclusive [inhibitor, partial curve, poor fit]"
Cc1ccc(Sc2ccc(NC(=O)CCN3C(=O)NC4(CCCC4)C3=O)cc2)c(C)c1,–,"inconclusive [inhibitor, partial curve, poor fit]"
COc1cccc(N2CCN(c3c(C#N)c(C(F)(F)F)nn3C)CC2)c1,–,"inconclusive [inhibitor, single point]"
O=[N+]([O-])c1ccc(OCCO)c(P(=O)(c2ccccc2)c2ccccc2)c1,inactive: 0%,–
C/C=C/COC(=O)c1[nH]c2c(c1C)C(=O)CC(c1ccc(N(C)C)cc1)C2 (stereo not drawn),–,"inconclusive [inhibitor, single point]"
NC(=O)c1ncn(C2OC(CO)C(O)C2O)n1 (stereo not drawn),–,"inconclusive [inhibitor, single point]"
CCC(=O)Nc1ccc(N2CCCCC2)c(C(=O)Nc2ccccc2C)c1,–,"inconclusive [inhibitor, single point]"
O=C(Nc1cc([N+](=O)[O-])ccc1Cl)c1cccnc1,inactive: 33.3%,–
COn1c(SCc2ccccc2)nc2ccccc2c1=O,–,"inconclusive [inhibitor, single point]"
c1ccc(C2CCC(N3CCC(N4CCCCC4)CC3)CC2)cc1 (stereo not drawn),–,active: 10.4 µM
COc1ccc(C(=O)C2CCN(C(=O)Nc3ccc(C)cc3)CC2)cc1,–,"inconclusive [inhibitor, partial curve, poor fit]"
COc1ccccc1-c1cc(C(F)(F)F)nc(NCc2ccco2)n1,–,"inconclusive [inhibitor, single point]"
CSC1=C(C#N)C(c2ccc3c(c2)OCO3)C2=C(CCCC2=O)N1 (stereo not drawn),–,"inconclusive [inhibitor, single point]"
O=C(N/N=C/c1cc(Br)ccc1O)c1ccccc1Cl,–,"inconclusive [inhibitor, full curve]"
CCCCCn1c(=O)c2ccccc2n2c(CCl)nnc12,–,"inconclusive [inhibitor, single point]"
CCn1c(SCC(=O)N=Nc2c(O)[nH]c3ccccc23)nc2ccccc21,inactive: -0.767%,–
COc1ccc(CN2CCN(S(=O)(=O)c3ccc(NC(C)=O)cc3)CC2)cc1OC,–,"inconclusive [inhibitor, single point]"
Cc1nc(N2CCC(C)CC2)c2c(C)c(C(=O)Nc3ccc(C)c(F)c3)sc2n1,–,"inconclusive [inhibitor, full curve, poor fit]"
CC(C)(C)NC(=S)NNC(=O)c1ccccc1Cl,inactive: 0%,–

SMILES,"activity change, negative = inhibition",Potency
COc1ccc(OC)c(NC(=O)CN(C)CC(=O)Nc2ccccc2Br)c1,inactive: -9.14%,–
C#CCOCCOCCOCCNc1nc(N2CCN(C(=O)CCCCCCCCCCNC(=O)[C@H](CO)n3cc(CCCSC)nn3)CC2)nc(N2CCN(C(=O)CCCCCCCCCCNC(=O)[C@H](CCCCN)n3cc(C[C@@H](C)CC)nn3)CC2)n1,–,active: 1.31 µM
Cc1csc(NC(=O)c2ccc(-c3ccc(Cl)cc3Cl)o2)n1,–,"inconclusive [inhibitor, single point]"
Cc1cc(C)c(C(=O)N(C)C2CCCN(Cc3ccccc3F)C2)o1 (stereo not drawn),–,"inconclusive [inhibitor, partial curve]"
Cc1cc2nnc(SCC(=O)NCC(c3ccccc3)N(C)C)n2c2ccccc12 (stereo not drawn),inactive: -6.82%,–
COc1ccc(N(C(=O)Cc2cccs2)C(C(=O)NC2CCCCC2)c2cccn2C)cc1OC (stereo not drawn),–,"inconclusive [inhibitor, single point]"
COCCCN1CC(=O)N2C(c3ccc(C)cc3)c3[nH]c4ccccc4c3C[C@H]2C1=O (stereo partly drawn),–,"inconclusive [inhibitor, partial curve]"
COc1ccc(Cl)cc1NC(=O)CN(C)C(=O)c1cccc(-n2cnnn2)c1,inactive: -21.1%,–
N#CC(c1ccc(Cl)cc1)N1CCOCC1 (stereo not drawn),–,"inconclusive [inhibitor, single point]"
CCOc1ccc(CC(=O)Nc2ccc(NC(=O)c3ccco3)cc2)cc1OCC,inactive: -23.3%,–
COc1cccc(-n2nc(C(=O)Nc3ccc4c(c3)OCO4)c3ccccc3c2=O)c1,–,"inconclusive [inhibitor, single point]"
CCOC(=O)Nc1c2ccccc2nc2ccccc12,–,active: 14.7 µM
Cc1cccc(NC(=O)NCC2CCN(c3ccc(S(=O)(=O)N4CCOCC4)cc3)CC2)c1,–,"inconclusive [inhibitor, partial curve, poor fit]"
O=[N+]([O-])c1ccc(-c2nnc(S)n2-c2ccccc2)cc1,inactive: 97.1%,–
COCCn1c(-c2ccc(OC)cc2)cnc1SCC(=O)Nc1cccc2ccccc12,–,"inconclusive [inhibitor, partial curve]"
O=C(N/N=C/c1ccncc1)c1cccc(NC(=O)c2ccccc2Cl)c1,–,"inconclusive [inhibitor, partial curve, poor fit]"
COc1cc(C(=O)N2CCN(Cc3ccccc3C(F)(F)F)CC2)cc(OC)c1OC,–,"inconclusive [inhibitor, full curve]"
O=C1CC(SC(=NCc2ccc3c(c2)OCO3)Nc2ccccc2)C(=O)N1 (stereo not drawn),inactive: 10.3%,–
COc1cccc(CN2CCCCC2c2cccnc2)c1 (stereo not drawn),–,"inconclusive [inhibitor, single point]"
O=C(CCCN1C(=O)/C(=C/c2ccccc2)SC1=S)Nc1ccc(C(=O)O)c(O)c1,inactive: -22.1%,–
Cc1ccc(S(=O)(=O)c2c(C)nn(C(C)(C)C)c2OC(=O)CC(C)C)cc1,–,"inconclusive [inhibitor, single point]"
CCCc1cc(=O)[nH]c(SCC(=O)c2cc(C)n(CC(F)(F)F)c2C)n1,inactive: 19.1%,–
CC(C)c1ccc(/C=N/NC(=O)CN(c2cccc(Cl)c2Cl)S(C)(=O)=O)cc1,–,"inconclusive [inhibitor, single point]"
